Test results reported in ChEMBL document CHEMBL4888484, “Replenishing the malaria drug discovery pipeline: Screening and hit evaluation of the MMV Hit Generation Library 1 (HGL1) against asexual blood stage Plasmodium falciparum ,using a nano luciferase reporter read-out” (2022).
About 540 (0.36%) of roughly 150,000 compounds showed an effect of 50% or more. This is one part of the list.

What follows are molecules tested on Plasmodium falciparum (assay: Primary screen in NF54 nanoGlo assay, in single point, at 2uM, 72h; a lower Z score goes with more inhibition). Conditions: timepoint 72 hour.
Assay type: functional, Erythrocyte

| SMILES | % Inhibition [%] | Z score |
| --- | --- | --- |
| Cc1c(Br)c2ccccc2n1CC(=O)NCc1ccc(N2CCN(C)CC2)nc1 | 6 | -0.74 |
| CCc1nc(N2CC3(C2)CC(F)(F)C3)c2ccsc2n1 | -2 | 0.22 |
| CCOC(=O)c1ccc(N2C(=O)NC3(CCCCC3)C2=O)cc1 | -9 | 1.08 |
| CN1CC(=O)N2CCN(C(=O)Cn3ccc4ccccc43)C[C@H]2C1=O | -10 | 1.42 |
| COc1cc(C(=O)N2CC[C@]3(CC(=O)NC3=O)C2)ccn1 | -8 | 1.37 |
| COc1ccccc1CC(=O)N[C@H]1CCCNC1=O | -11 | 1.69 |
| c1coc(CN2CCN(c3nccn4cnnc34)CC2)c1 | -12 | 2.04 |
| CC(=O)N1CCOC[C@H]1C(=O)Nc1ccc2c(ccn2CC(C)C)c1 | -10 | 1.29 |
| COCC1(c2noc([C@@H]3CCCO3)n2)CCCCC1 | 1 | -0.09 |
| O=C(NCCc1noc(C(F)(F)F)n1)[C@@H]1CCC[C@H](O)C1 | -10 | 1.69 |
| CCCN(CCO)C(=O)Nc1ccc(Cl)cc1F | -14 | 1.8 |
| Cc1ccc2nc(N3CCC[C@H](O)C3)c(CN(C)CCc3cn[nH]c3)cc2c1 | -9 | 1.17 |
| CCOCc1ccc(NC(=O)N2CCC3CCC(C2)N3C(C)C)cc1 (stereo unspecified) | 8 | -1.16 |
| Cc1c(Cl)ccc2c1NC(=O)C21NC(C(C)O)[C@H]2C(=O)N(Cc3ccc4c(c3)OCO4)C(=O)[C@H]21 (stereo partly specified) | -9 | 1.39 |
| Cc1ccc(-n2cnnc2)c(C(=O)N2CCC3CCC(C2)S3(=O)=O)c1 (stereo unspecified) | -7 | 1.08 |
| CC(=O)Nc1nc(-c2ccccc2)[n+](-c2ccccc2)s1 | 12 | -1.55 |
| C[C@@H](CCc1ccccc1)NC(=O)NCc1nnc2c(Cl)cc(C(F)(F)F)cn12 | -5 | 0.55 |
| CN1C[C@@H](NC(=O)c2ccccc2OCc2ccccc2)CC1=O | -4 | 0.84 |
| Cc1noc([C@H]2CN(CCc3ccccc3)CC23CCCC3)n1 | -2 | 0.3 |
| CC(C)N1CCC(C(=O)N[C@@H](C)Cn2ccc3ccccc32)CC1 | -5 | 0.97 |
| O=C(Cn1cc(C(F)(F)F)ccc1=O)Nc1ccc(N2CCOCC2)cc1 | -14 | 2.86 |
| COc1ccc([C@H]2C(=O)N(C3CCCCC3)CC(=O)N2C2CCCCCCC2)cc1 | -4 | 0.77 |
| Cc1nc(CN(C)Cc2nccs2)[nH]c1C | -9 | 1.52 |
| CS(=O)(=O)c1ccc([C@H]2CC(=O)Nc3c2cnn3C2CCCC2)cc1 | -1 | 0.15 |
| Cn1cc(NC(=O)Nc2cccc(F)c2)cc(Cl)c1=O | -1 | 0.2 |
| O=C(CCn1c2c(c3ccccc31)CCCC2)N1CCC(Cc2nc(C3CCOCC3)no2)CC1 | 9 | -1.12 |
| Nc1nc2c(c(N3CCN(C(=O)c4cnon4)C[C@H](O)C3)n1)CCC2 | -9 | 1.69 |

| SMILES | % Inhibition [%] | Z score |
| --- | --- | --- |
| O=C(CCc1nc(C2CCCC2)no1)Nc1cncnc1N1CCCC1 | -3 | 0.48 |
| Cc1ccc(-c2ncc(CN(C)[C@@H](C)c3cccnc3)s2)o1 | -8 | 1.29 |
| CCCC[C@@H](COC)NC(=O)C(=O)Nc1cccc(Cl)c1 | -12 | 1.27 |
| CC(C)(CC(F)F)C(=O)NCc1cccc(CN2CCCC2=O)c1 | 20 | -2.48 |
| Clc1ccc(O[C@H]2CCCN(Cc3cnc4cnccn34)C2)nc1 | 3 | -0.47 |
| Cc1cc(CN(C)Cc2c[nH]c(C)n2)ccn1 | 4 | -0.55 |
| CC1=CCN(C(=O)N[C@@H](C)c2csc(C)n2)CC1 | -7 | 1.41 |
| C[C@H](NC(=O)N(Cc1ccoc1)C1CC1)c1cncc(F)c1 | -4 | 0.5 |
| Cc1ccc(CNCCOc2ccc3c(c2)OCO3)nc1 | -7 | 0.62 |
| COc1cccc(Nc2nnc(CC(=O)NCc3ccc(C)cc3)s2)c1 | -16 | 1.89 |
| C[C@H](NC(=O)NC1(C(N)=O)CCCC1)c1cn2ccsc2n1 | -6 | 1.14 |
| CCCn1c(=O)sc2cc(NC(=O)c3ccc(OC)cc3)ccc21 | 13 | -2.13 |
| CC(C(=O)NC1C2CCC(C2)C1CO)c1ccccc1 (stereo unspecified) | -1 | 0.11 |
| Cn1cnnc1N1CCN(C(=O)NCCc2nccn2Cc2ccccc2)CC1 | 0 | 0.03 |
| CNC(=O)C[C@H]1CCN(c2nc(C)nc(C)c2C)C1 | -2 | 0.33 |
| COc1ccc(CNC(=O)[C@H]2CC(=O)N(c3ccc(OCC(=O)Nc4ccc(C)cc4)cc3)C2)cc1 | -6 | 0.75 |
| O=c1c2ccccc2nnn1C[C@H]1CC[C@H](C(=O)N2CCC(Cc3ccccc3)CC2)CC1 | -11 | 1.56 |
| Cn1c(C(=O)N2CCC[C@@]23CCOC3=O)cc2cc(C(F)(F)F)ccc21 | -5 | 0.76 |
| COCCC(=O)N1CCC[C@H](n2c(=O)n(CC3CC3)c3cccnc32)C1 | -13 | 1.76 |
| COc1cc(OC)c(CN2CCN(C)C[C@@H]2C(C)C)c(C(=O)O)c1 | 3 | -0.35 |
| O=S(=O)(c1cnccc1Nc1cccc(C(F)(F)F)c1)N1CCOCC1 | 7 | -1.08 |
| CCc1ncc(C(=O)N(C)Cc2ccc(-n3cccn3)cc2)cn1 | -16 | 1.71 |
| CNC(=NCc1ccnc(OC2CCC2)c1)NC | -16 | 1.37 |
| COCCN(C)C(=O)C[C@]1(c2ccc(-c3ccccc3)cc2)CC(=O)N(C2CC2)C1=O | 1 | -0.15 |
| O=S(=O)(c1ccc(F)c(F)c1)c1cnc2c(F)cccc2c1-c1ccc(Cl)cc1 | -9 | 1.04 |
| NC1=NC(=Nc2cccc(S(=O)(=O)N3CCCCC3)c2)c2ccccc21 | -8 | 1.06 |
